According to paper PMC4336329 (PLoS ONE, 2015):
Screen size: about 310,000 compounds; about 14,000 (4.5%) showed an effect of 50% or more. Effects have a minus sign here. This is one part of the list.

These compounds were tested against human ether-à-go-go-related gene (hERG) potassium channel (human, UniProt Q12809) (assay: primary screen, population patch clamp on CHO cells stably expressing hERG).
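Note: peak tail current of the secondary pulse compared with the same well before compound.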

Chain of human ether-à-go-go-related gene (hERG) potassium channel (Q12809 whole entry, looked up): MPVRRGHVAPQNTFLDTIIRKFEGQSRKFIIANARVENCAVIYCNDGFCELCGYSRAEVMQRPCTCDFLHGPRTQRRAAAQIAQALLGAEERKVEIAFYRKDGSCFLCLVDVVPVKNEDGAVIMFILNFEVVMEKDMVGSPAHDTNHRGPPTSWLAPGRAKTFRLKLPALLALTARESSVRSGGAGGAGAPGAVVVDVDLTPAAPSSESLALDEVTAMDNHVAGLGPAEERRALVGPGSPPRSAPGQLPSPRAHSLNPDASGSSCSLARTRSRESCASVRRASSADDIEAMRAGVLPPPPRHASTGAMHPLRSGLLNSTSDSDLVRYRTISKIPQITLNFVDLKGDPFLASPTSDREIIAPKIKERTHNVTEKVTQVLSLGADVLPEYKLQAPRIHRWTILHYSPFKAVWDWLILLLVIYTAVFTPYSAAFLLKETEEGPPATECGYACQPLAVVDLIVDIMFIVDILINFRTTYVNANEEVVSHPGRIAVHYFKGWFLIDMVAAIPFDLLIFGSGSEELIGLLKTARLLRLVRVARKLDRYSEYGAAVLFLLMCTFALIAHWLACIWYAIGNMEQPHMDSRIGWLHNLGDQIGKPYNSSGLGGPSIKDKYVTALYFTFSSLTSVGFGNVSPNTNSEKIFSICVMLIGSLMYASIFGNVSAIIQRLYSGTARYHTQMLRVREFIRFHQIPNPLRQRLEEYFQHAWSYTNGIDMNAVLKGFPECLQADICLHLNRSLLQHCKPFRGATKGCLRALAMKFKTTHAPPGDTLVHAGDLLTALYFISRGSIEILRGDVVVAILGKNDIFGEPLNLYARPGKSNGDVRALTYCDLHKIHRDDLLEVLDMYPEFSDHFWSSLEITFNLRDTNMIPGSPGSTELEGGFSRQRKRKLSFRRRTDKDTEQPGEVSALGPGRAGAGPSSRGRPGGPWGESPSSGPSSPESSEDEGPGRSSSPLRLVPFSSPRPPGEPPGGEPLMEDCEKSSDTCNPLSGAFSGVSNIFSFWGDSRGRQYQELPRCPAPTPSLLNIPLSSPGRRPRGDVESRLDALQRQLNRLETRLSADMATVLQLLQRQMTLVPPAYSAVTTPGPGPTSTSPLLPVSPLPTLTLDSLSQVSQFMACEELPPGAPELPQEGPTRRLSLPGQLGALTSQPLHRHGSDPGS

Row | SMILES | hERG current change (%, negative = inhibition) at 10uM [%]
1 | NC(=O)C12CCCC(Br)(CCC1)C2 | 10.1
2 | COc1ccc(C(=O)Nc2nncs2)c(OC)c1 | 7.19
3 | CCC(C)[C@H](NC(=O)N1CCCC1)C(=O)OC (stereo partly shown) | -0.198
4 | COc1ccc(CN2CCCC(C(=O)Nc3cccc(-n4cccn4)c3)C2)cc1 (stereo not shown) | -58.9
5 | CCOC(CNc1cc(C)nc2c(-c3ccccc3OC)c(C)nn12)OCC | 8.64
6 | O=C(CSc1nnc(-c2cccnc2)o1)Nc1cccc(F)c1 | -1.97
7 | COc1cn(-c2ccccc2)nc1C(=O)Nc1ccc(C)cc1Cl | 17
8 | Cc1ccc(S(=O)(=O)NC(=S)NC2CCCCC2)cc1 | 15.4
9 | O=C(Nc1ccc(-c2nc3ccccc3[nH]2)cc1)c1ccccc1NS(=O)(=O)c1ccc(F)cc1 | -0.475
10 | COc1ccc(S(=O)(=O)N2CCOC23CCN(C(=O)c2ccc(Cl)cc2Cl)CC3)cc1 | -68.9
11 | Cc1ccc(NC(=O)COC(=O)C(CC(C)C)N2C(=O)C3CC=CCC3C2=O)c(C)c1 (stereo not shown) | -6.2
12 | O=c1o[nH]c(-c2ccccc2)c1-c1ccccc1 | 0.0608
13 | O=C1CC(NS(=O)(=O)c2ccc([N+](=O)[O-])cc2)CN1c1ccc(Cl)cc1 (stereo not shown) | -66.6
14 | COc1ccc(NC(=O)CN(C)C(=O)COc2ccccc2Cc2ccccc2)cc1 | -29.1
15 | CC(C)CC(NS(=O)(=O)c1cccc(C(=O)O)c1)C(=O)O (stereo not shown) | 44.6
16 | CC(Oc1ccc(F)cc1F)C(=O)NNC(=S)NCC1CCCO1 (stereo not shown) | 9.12
17 | CCN1CCS/C1=C/C=C/C1=[N+](CC)CCS1.[I-] | 24.7
18 | C=CCN(C#N)c1nc(OC)nc(N2CCCC2)n1 | 9.23
19 | O=C1NC(=O)C(c2cccs2)(c2cccs2)N1 | 16.1
20 | COc1ccccc1NC(=O)COC(=O)C12CC3CC(CC(Cl)(C3)C1)C2 | -4.28

Row | SMILES | hERG current change (%, negative = inhibition) at 10uM [%]
21 | Cc1ccc(CNC(=O)CCCCCNC(=O)N2CCn3c2nc2ccccc23)cc1 | -0.874
22 | C#CCOCCOCCOCCNc1nc(N2CCN(C(=O)[C@H](CCCCN)n3cc(C(N)CC(C)C)nn3)CC2)nc(N2CCN(C(=O)[C@H](CCC(=O)O)n3cc(C(N)[C@H](C)CC)nn3)CC2)n1.Cl (stereo partly shown) | 18.1
23 | Cc1ccc(CNC(=O)N2CCN(C)CC2)cc1 | -2.54
24 | CCC(C(=O)O)P(=O)(c1ccc(Cl)cc1)c1ccc(Cl)cc1 (stereo not shown) | 18.4
25 | O=C(CCCC(=O)NC1CCCC1)NC1CCCC1 | 6.45
26 | CCOC1(NC(=O)c2ccccc2)C(C)=CC(=O)C=C1C | -21.6
27 | CC1=CCC(C(=O)N/N=C/c2cccs2)C(c2ccc(F)cc2)C1 (stereo not shown) | -14.9
28 | Oc1ccc2[nH]ccc2c1 | 2.88
29 | COc1cc2cc(CCOC(=O)c3ccco3)oc(=O)c2cc1OC | 8.37
30 | O=C1CSC(c2ccncc2)N1Cc1ccco1 (stereo not shown) | -1.73
31 | CSC1=NCCN1S(=O)(=O)c1ccc(F)cc1 | -10.2
32 | CC(OC(=O)C(NC(=O)c1ccco1)C(C)C)C(=O)Nc1ncc(Cl)cc1Cl (stereo not shown) | -10.4
33 | COc1ccc(N2C(=O)/C(=C3/C=CC=CN3C)SC2=S)cc1 | -9.89
34 | COC(=O)N/N=C/c1cccnc1 | 9.58
35 | CCOc1ccc(NC(=S)N/N=C(\C)Cc2ccc(OC)cc2)cc1 | 2.3
36 | COc1ccc(S(=O)(=O)N(CC(=O)N2CCN(c3ccccc3)CC2)c2ccccc2)cc1 | 5.82
37 | COc1ccc(-n2cnc3cc(N)ccc32)cc1 | 5.06
38 | O=C(COC(=O)Cc1ccsc1)NCc1ccccc1 | 19.6
39 | O=C(Nc1ccc2c(c1)nc1n2CCOC1)C1CCCCC1 | 6.14
40 | Cc1cc(=O)n2c(n1)NC(Nc1cccc(C)c1C)=NC2c1ccccc1 (stereo not shown) | 13.5

Row | SMILES | hERG current change (%, negative = inhibition) at 10uM [%]
41 | O=C1NC(=O)C(=Cc2ccc(OCCOc3ccc([N+](=O)[O-])cc3)cc2)C(=O)N1 | -28.2
42 | Cc1ccc(S(=O)(=O)N(C)C)cc1NC(=O)COC(=O)COc1ccccc1[N+](=O)[O-] | -14.1
43 | Cc1cc(NC(=O)CSCc2nc(-c3cccc(F)c3)oc2C)no1 | 0.986
44 | Cc1nc(NC(=S)NC(=O)c2cccs2)ccc1Br | 15.3
45 | Cc1cc(/C=C2/C(=O)NC(=O)N(c3ccccc3)C2=O)c(C)n1-c1ccc(F)cc1 | 2.05
46 | Cc1ccc(CNC(=O)C2CCN(S(=O)(=O)N3CCCCC3)CC2)cc1 | -11.4
47 | CCOC(=O)C1CCN(C(=O)COc2ccc(N(C)S(=O)(=O)c3ccc(C)cc3)cc2)CC1 | -57.7
48 | COc1cccc(CNCCOCCO)c1OC.Cl | 3.47
49 | Cc1ccc(O)c(NC(=O)c2ccc3c(c2)C(=O)N(Cc2cccnc2)C3=O)c1 | 1.97
50 | Cc1ccnc(SCCn2c(N3CCCCC3)nc3c2c(=O)n(C)c(=O)n3C)n1 | 9.39
51 | Cc1ccc(Oc2ncccc2CO)cc1 | 15.3
52 | Cc1ccc(NC(=O)c2ccc(N/N=C/c3cccc(O)c3)c([N+](=O)[O-])c2)cc1 | 15.8
53 | Cc1cc2n(c1)CCn1c(C)ccc1-2 | 24.5
54 | O=C(Nc1ccccc1)N(Cc1cccs1)C1CCCC1 | 0.732
55 | CC(=O)Nc1ccc(NC(=O)C(C)OC(=O)C2CCC2)cc1 (stereo not shown) | -4.73
56 | Cc1nc(N(CCO)C2CCCCC2)c2nnn(Cc3ccccc3)c2n1 | 8.25
57 | CCc1c(C)nc2ncnn2c1N1CCCC(C(=O)Nc2ccc(NC(C)=O)cc2)C1 (stereo not shown) | 14.2
58 | CCc1cc(=O)oc2cc(C)cc(OCC(=O)N3CCC(C(=O)O)(c4ccccc4)CC3)c12 | 5.65
